Data: PubChem BioAssay AID1159614 (National Center for Advancing Translational Sciences (NCATS), 2016)
The campaign covered roughly 45,000 compounds. About 65 (0.1%) were called active. Calls come from the whole dose curve; as a rule, active = well fitted activation curve with a large enough effect; inconclusive = small, poorly fitted or top-dose-only effect; inactive = no such curve, though single readings can be large or run the other way. Some of the results follow.

target: Galactocerebrosidase (Homo sapiens) (UniProt P54803); assay: A Novel Cell-Based Assay to Identify Small Molecules for B -Galactocerebrosidase; conditions: 145M-Twi-hGALC-G270D cells (Twitcher mouse brain line with human GALC G270D), HMU-beta-Gal fluorescence, 48 h; series mostly up to 57.5 µM; activation: at the top concentration; note: nearly all actives have a fitted effect of over 65% in size; for activation: 0% is about no effect
In short: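 Mutant human GALC (G270D), stably expressed in a Twitcher mouse brain cell line lacking endogenous GALC, is measured in live-treated cells via 6-hexadecanoylamino-4-methylumbelliferyl-β-galactoside hydrolysis (0.1 mM final, pH 5.2) with fluorescent detection.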
Potency is the fitted concentration of half-maximal effect.

Sequence of UniProt P54803 (P54803 whole entry, looked up): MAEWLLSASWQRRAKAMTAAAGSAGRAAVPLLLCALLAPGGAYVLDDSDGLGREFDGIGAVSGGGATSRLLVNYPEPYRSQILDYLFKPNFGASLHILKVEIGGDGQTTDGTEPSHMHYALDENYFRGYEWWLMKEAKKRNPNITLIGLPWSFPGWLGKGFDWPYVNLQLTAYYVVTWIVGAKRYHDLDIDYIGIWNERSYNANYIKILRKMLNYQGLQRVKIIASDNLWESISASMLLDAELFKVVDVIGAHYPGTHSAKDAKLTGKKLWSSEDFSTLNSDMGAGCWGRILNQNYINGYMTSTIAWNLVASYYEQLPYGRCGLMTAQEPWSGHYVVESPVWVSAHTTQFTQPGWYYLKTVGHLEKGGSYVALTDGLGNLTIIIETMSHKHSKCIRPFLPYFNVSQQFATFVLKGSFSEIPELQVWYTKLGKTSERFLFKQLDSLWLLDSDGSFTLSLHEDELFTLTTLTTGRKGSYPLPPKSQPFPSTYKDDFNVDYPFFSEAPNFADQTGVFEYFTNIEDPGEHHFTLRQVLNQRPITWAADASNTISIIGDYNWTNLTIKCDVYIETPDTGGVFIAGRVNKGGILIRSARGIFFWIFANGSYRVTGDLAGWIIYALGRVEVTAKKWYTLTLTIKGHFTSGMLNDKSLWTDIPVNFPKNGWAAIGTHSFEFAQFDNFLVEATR

SMILES | activation | Potency
Cc1ccc2occ(CC(=O)Nc3ccc(Cl)c(C(F)(F)F)c3)c2c1 | inactive: -3.8% | 
COc1ccc(C2=C(C)C(N3CCN(c4ccc(OC)cc4)CC3)=NS2(=O)=O)cc1 | inactive: -10.2% | 
CCOCCCn1c(=N)c(C(=O)NC(C)c2ccccc2)cc2c(=O)n3cccc(C)c3nc21 (stereo unspecified) |  | active: 20 µM
CCC(CC)C(=O)Nc1nnc(S(=O)(=O)N2c3ccccc3CC2C)s1 (stereo unspecified) | inactive: -22.1% | 
CN(C(=O)c1ccc2c(c1)N(Cc1ccc(F)cc1)C(=O)c1ccccc1S2(=O)=O)C1CCCCC1 | inactive: -0.82% | 
COc1ccc(C(=O)NNc2ncnc3c2cnn3-c2ccc(C)cc2C)cc1 | inactive: -13% | 
CCc1ccc(CN(C(=O)Nc2cccc(Cl)c2)c2ccccn2)cc1 | inactive: -22.2% | 
COC(=O)c1nc2n(n1)C(c1cc(OC)ccc1OC)C=C(c1ccc(Br)cc1)N2 (stereo unspecified) | inactive: -8.01% | 
CCOC(=O)Cn1c(=O)oc2cc(S(=O)(=O)NC(C)c3ccccc3)ccc21 (stereo unspecified) | inactive: -14.1% | 
COc1ccccc1CNC(=O)c1ccc(-n2c(C)cc3c2CCCC3)cc1 | inactive: -11.5% | 
COc1ccc(Cl)cc1NC(=O)c1cnc(N2CCCCC2)c2ccccc12 | inactive: -7.31% | 
Cc1c(Cl)cccc1NS(=O)(=O)c1ccc(NS(=O)(=O)c2ccc3c(c2)OCCO3)cc1 | inactive: -11.1% | 
O=C(c1ccccc1F)N1c2nc(-c3ccco3)nn2C2(CCCCC2)[C@@H]2CCCC[C@@H]21 | inactive: 3.3% | 
CCOc1ccc(NC(=O)CCn2cccn2)cc1 | inactive: -10.7% | 
CCCCOC(=O)/C(C#N)=C\c1ccc(-c2ccc(Cl)cc2)o1 | inactive: -8.36% | 
CCOc1ccc(NC(=O)C2CCN(S(=O)(=O)c3c(C)noc3/C=C/c3ccco3)CC2)cc1 | inactive: -13.1% | 
CCOC(=O)c1ccccc1NC(=O)N1CC(C)Oc2ccc(C)cc21 (stereo unspecified) | inactive: 0.384% | 
O=C(Nc1ccc(Br)cc1)C1CCN(c2ncccn2)CC1 | inactive: -10.6% | 
COc1cc(NC(=O)C(=O)Nc2ccc3nc4n(c(=O)c3c2)CCCCC4)cc(OC)c1OC | inactive: -7.35% | 
CCOC(=O)N1CCN(C(=O)c2ccc3c(c2)N(Cc2cccc(Cl)c2)C(=O)c2ccccc2S3=O)CC1 (stereo unspecified) | inactive: -6.93% | 
CC(=O)c1ccc(C(=O)N(Cc2cccnc2)c2nc3c(C)c(C)ccc3s2)cc1 | inactive: -8.63% | 
O=C1CN(C(=O)COc2ccc(Cl)cc2)C(c2ccc(F)cc2)c2cc(Cl)ccc2N1 (stereo unspecified) | inactive: -25.9% | 
Cc1ccc(-c2nc3ccccn3c2Nc2ccc3c(c2)OCCO3)o1 | inactive: -8.65% | 
COc1ccc(Br)cc1CNC(=O)CCc1cn(Cc2ccc(C)cc2)c2ccccc12 | inactive: -19% | 

SMILES | activation | Potency
CC1=C(c2ccc(Cl)cc2)S(=O)(=O)N=C1N1CCC(C(=O)NCCc2ccco2)CC1 | inactive: -11.4% | 
CCOC(=O)c1ccccc1NC(=O)c1cc2c(s1)-c1ccccc1SC2 | inactive: -27.8% | 
COC(=O)c1sccc1S(=O)(=O)N1CCN(c2ccc(Cl)cc2)CC1 | inactive: -6.62% | 
Cc1scc(CN2CCN(c3ccc(F)cc3)CC2)c1C | inactive: -0.567% | 
COc1ccccc1N1CCN(S(=O)(=O)CCNC(=O)COc2ccccc2F)CC1 | inactive: -16.8% | 
Cc1ccc(CNc2ncccc2-c2nc(-c3ccc(Cl)cc3)no2)cc1 | inactive: 5.56% | 
O=C(CCCn1c(=O)c2sccc2n(Cc2ccc(Cl)cc2)c1=O)NCc1ccc2c(c1)OCO2 | inactive: -13.4% | 
CC(C)CC(NC(=O)C1CCCCC1)C(=O)Nc1cccc(C(F)(F)F)c1 (stereo unspecified) | inactive: -3.34% | 
CC(C)c1ccc(NC(=O)CN2C(=O)CSc3ccc(S(=O)(=O)N4CCCC4)cc32)cc1 | inactive: -19.9% | 
Cc1ccc(-c2nc(S(=O)(=O)c3ccccc3)c(SCC(=O)NC3CCCCC3)o2)cc1 | inactive: -2.42% | 
Cc1ccc(Cl)cc1N1CCN(C(=O)c2nn(C)c3c2CS(=O)(=O)c2ccccc2-3)CC1 | inactive: -5.34% | 
COc1ccc(CCNC(=O)CCc2cn(Cc3ccc(F)cc3)c3ccccc23)cc1OC | inactive: 2.06% | 
Cc1ccc(Cl)cc1NC(=O)c1cc(CN2CCCC2)on1 | inactive: -14.3% | 
CCc1cccc(C)c1NC(=O)c1cc(S(=O)(=O)N2CCCCCC2)cn1C | inactive: -15.7% | 
COc1ccc(-c2cc(C(F)(F)F)nc(SCCC(=O)Nc3cccc(OC)c3)n2)cc1 | inactive: 3.99% | 
O=C(NC1CC1)c1ccc(Cn2c(SCc3ccc(F)cc3)nc3cccnc32)cc1 | inactive: 3.53% | 
Cc1cccc(N2CCN(C(=O)c3cccn3-c3nnc(N4CCCCC4)s3)CC2)c1C | inactive: -29.1% | 
CCc1ccc(NC(=O)c2ccc(NS(=O)(=O)c3c(C)noc3C)cc2)cc1 | inactive: -15.6% | 
CCCOc1ccc(C(=O)Nc2ccc(-c3cc4ccccc4oc3=O)c(C)c2)cc1 | inactive: -12% | 
CCc1ccc(CNC(=O)c2sc3nc[nH]c(=O)c3c2C)cc1 | inactive: -0.794% | 
O=C(COc1ccc(F)cc1)Nc1ccc(S(=O)(=O)N(Cc2ccccc2)c2ccccc2)cc1 | inactive: -18.1% | 
COc1ccc(NC(=O)CCn2c(-c3ccc(F)cc3)cc(C(C)=O)c2C)c(OC)c1 | inactive: -15.9% | 
O=c1cc(CSc2ccccc2)[nH]c2ccc(F)cc12 | inactive: 3.35% | 
CCCNc1ncnc2c1c(-c1ccccc1)cn2-c1ccc(OCC)cc1 | inactive: -26.5% | 

SMILES | activation | Potency
COc1ccc(-c2cc(C(C)=O)c(C)n2CCC(=O)Nc2ccc(C)c(Cl)c2)cc1 | inactive: -12.4% | 
COc1ccc(OC)c(CNc2ncnc3c2nc2n3CCCC2)c1 | inactive: -6.59% | 
CCc1c(C)nc(SCc2nc(-c3ccccc3C)no2)[nH]c1=O | inactive: 7% | 
CCN(C(=O)Cc1c(C(=O)O)c(C)cn1C)c1cccc(Cl)c1 | inactive: -7.12% | 
CCc1ccc(Nc2nnc(-c3cc4cc(OC)ccc4oc3=O)s2)cc1 | inactive: -5.94% | 
Cc1ccc(NC(=O)c2c(C)oc3ccc(O)c(CN(C)Cc4ccccc4)c23)c(C)c1 | inactive: -19% | 
CC(=O)Nc1ccc(Nc2c(CCC(C)C)c(C)c(C#N)c3nc4ccccc4n23)cc1 | inactive: 1.46% | 
CCOc1ccc(S(=O)(=O)c2c(C(=O)c3ccc(C)c(C)c3)cnc3ccccc23)cc1 | inactive: -17.8% | 
Cc1ccc(CNC(=O)CCc2nnc3n(C)c(=O)c4sccc4n23)cc1 | inactive: -3.38% | 
Cc1ccc(NC(=O)c2sc3nc(-c4ccncc4)ccc3c2N)cc1 | inactive: -12.4% | 
COc1cc(NC(=O)C(NS(=O)(=O)c2ccc3c(c2)CCCC(=O)N3)C(C)C)cc(OC)c1 (stereo unspecified) | inactive: -1.12% | 
COC(=O)c1sccc1S(=O)(=O)N(CC(=O)Nc1ccc(C)c(F)c1)c1ccc(C)c(C)c1 | inactive: 4.8% | 
Cc1ccccc1Cn1c(=O)n(CCc2ccccc2)c(=O)c2sc3ccccc3c21 | inactive: 9.65% | 
Cc1ccccc1C(=O)Nc1nnc(S(=O)(=O)N(C)c2ccc(Cl)cc2)s1 | inactive: 6.13% | 
CC(=O)N[C@@H](CC(C)C)C(=O)O | inactive: -7.6% | 
CCOC(=O)c1ccc(NC(=O)N2CCOc3ccccc32)cc1 | inactive: -20% | 
COCCCNC(=O)C(=O)Nc1c2c(nn1-c1cccc(Cl)c1)CSC2 | inactive: -12.1% | 
Cc1cc(Br)ccc1NC(=O)C1CCN(S(=O)(=O)c2cccc3nsnc23)CC1 | inactive: -2.08% | 
Cc1ccccc1-c1nnc(CN2CCN(c3ccccn3)CC2)o1 | inactive: -14.6% | 
COc1ccc(-c2noc(-c3ccc(N4CCN(C)CC4)c([N+](=O)[O-])c3)n2)cc1OC | inactive: -3.79% | 
COc1ccc(-c2oc3ncn4nc(COc5c(C)cccc5C)nc4c3c2-c2ccc(OC)cc2)cc1 | inactive: -26.9% | 
Cc1nn(C(=O)c2ccccc2F)c(C)c1S(=O)(=O)N1CCCCCC1 | inactive: -9.16% | 
CCCCCSc1nc2sc3c(c2c(=O)n1-c1ccccc1)CCN(C(C)=O)C3 | inactive: -1.84% | 
CCOc1ccccc1NC(=O)N1CCc2cc(S(=O)(=O)N3CCC(C)CC3)ccc21 | inactive: -10.3% | 

SMILES | activation | Potency
CNC(=O)Cn1cc(S(=O)(=O)Cc2ccccc2F)c2ccccc21 | inactive: -4.42% | 
COC(=O)c1c(-c2cccs2)csc1NC(=O)COc1c(C)ccc(C)c1C | inactive: -19.6% | 
Cc1cccc(NC(=O)c2sc(-n3nc(C)c(Cc4ccc5c(c4)OCO5)c3C)nc2C)c1C | inactive: 3.6% | 
Cc1ccc(Cn2c(SCc3ccc(C(=O)N4CCCCCC4)cc3)nc3ccncc32)cc1 | inactive: -2.06% | 
COc1ccccc1NC(=O)c1sc2nc(N3CCOCC3)c3c(c2c1N)CC(C)(C)OC3 | inactive: -19.4% | 
Nc1nc(Cl)nc2c1ncn2[C@@H]1O[C@H](CO)[C@@H](O)[C@@H]1F | inactive: -12.9% | 
Cn1nnnc1SCCCNCc1ccccc1OCc1ccccc1Cl | inactive: -13.3% | 
COc1ccc(-c2noc(CSc3nnc(C)n3-c3ccc(OC)cc3)n2)cc1 | inactive: -12.6% | 
Cc1ccc(NC(=O)CSc2ncc3c(n2)-c2ccc(Cl)cc2N(C)S3(=O)=O)cc1F | inactive: -18.8% | 
COc1cccc(NC(=O)N2CCN3CCCCC3C2)c1 (stereo unspecified) | inactive: -6.61% | 
CCCOC(=O)CSc1ncnc2sc3c(c12)CCC(C)C3 (stereo unspecified) | inactive: -22.1% | 
COc1ccc(-c2cc(C)no2)cc1S(=O)(=O)NC(C)C | inactive: -6.41% | 
COc1ccc(CN2CCc3nc(SCC(=O)Nc4cc(C)cc(C)c4)[nH]c(=O)c3C2)cc1 | inactive: -12.6% | 
COc1ccc(-c2noc(Cn3c(=O)c4ccccc4n(CC(=O)Nc4cccc(OC)c4)c3=O)n2)cc1 | inactive: -12.9% | 
COc1cc(OC)cc(N2C(=O)N(CC(=O)c3ccc(F)cc3)c3ccccc3S2(=O)=O)c1 | inactive: -0.6% | 
Cc1cccc(Cn2c(=O)n(CC3CCC(C(=O)N4CCOCC4)CC3)c(=O)c3sccc32)c1 (stereo unspecified) | inactive: -14.7% | 
CCOC(=O)c1ccc(NC(=O)c2oc(=O)c3ccccc3c2-c2ccccc2)cc1 | inactive: -8.41% | 
COc1ccccc1-c1nc2c(c(SCC(=O)Nc3c(C)cc(C)cc3C)n1)Cc1c(CO)cnc(C)c1O2 | inactive: -21.2% | 
CCC(=O)N1CCc2cc(S(=O)(=O)CCC(=O)NCc3ccc(C)cc3)ccc21 | inactive: -6.5% | 
CCc1cccc(NC(=O)C(Cc2ccccc2)NS(=O)(=O)c2ccc3c(c2)oc(=O)n3C)c1 (stereo unspecified) | inactive: -13.8% | 
CCOC(=O)c1c(NC(=O)c2cc3nc(-c4ccc(OC)cc4)cc(C(F)(F)F)n3n2)sc2c1CCC(C)C2 (stereo unspecified) | inactive: -10.1% | 
CCCCOC(=O)c1ccc(NC(=O)Cn2nnc3sc4c(c3c2=O)CCCC4)cc1 | inactive: -24% | 
O=C(NCc1cccs1)c1ccc(Cn2c(SCc3cccc(F)c3)nc3cccnc32)cc1 | inactive: -7.03% | 
CCOc1ccc(CCNC(=O)c2ccc(Nc3nc4ccccc4n4nnnc34)cc2)cc1OCC | inactive: -0.275% | 
